# Assay results from publication PMC4336329 (PLoS ONE, 2015).
# Screen size: about 310,000 compounds; about 2,200 (0.71%) showed an effect of 50% or more. Effects have a minus sign here. This is one part of the list.
# Target: human ether-à-go-go-related gene (hERG) potassium channel (human, UniProt Q12809)
# Experiment: primary screen, population patch clamp on CHO cells stably expressing hERG
# human ether-à-go-go-related gene (hERG) potassium channel, sequence (Q12809 whole entry, looked up): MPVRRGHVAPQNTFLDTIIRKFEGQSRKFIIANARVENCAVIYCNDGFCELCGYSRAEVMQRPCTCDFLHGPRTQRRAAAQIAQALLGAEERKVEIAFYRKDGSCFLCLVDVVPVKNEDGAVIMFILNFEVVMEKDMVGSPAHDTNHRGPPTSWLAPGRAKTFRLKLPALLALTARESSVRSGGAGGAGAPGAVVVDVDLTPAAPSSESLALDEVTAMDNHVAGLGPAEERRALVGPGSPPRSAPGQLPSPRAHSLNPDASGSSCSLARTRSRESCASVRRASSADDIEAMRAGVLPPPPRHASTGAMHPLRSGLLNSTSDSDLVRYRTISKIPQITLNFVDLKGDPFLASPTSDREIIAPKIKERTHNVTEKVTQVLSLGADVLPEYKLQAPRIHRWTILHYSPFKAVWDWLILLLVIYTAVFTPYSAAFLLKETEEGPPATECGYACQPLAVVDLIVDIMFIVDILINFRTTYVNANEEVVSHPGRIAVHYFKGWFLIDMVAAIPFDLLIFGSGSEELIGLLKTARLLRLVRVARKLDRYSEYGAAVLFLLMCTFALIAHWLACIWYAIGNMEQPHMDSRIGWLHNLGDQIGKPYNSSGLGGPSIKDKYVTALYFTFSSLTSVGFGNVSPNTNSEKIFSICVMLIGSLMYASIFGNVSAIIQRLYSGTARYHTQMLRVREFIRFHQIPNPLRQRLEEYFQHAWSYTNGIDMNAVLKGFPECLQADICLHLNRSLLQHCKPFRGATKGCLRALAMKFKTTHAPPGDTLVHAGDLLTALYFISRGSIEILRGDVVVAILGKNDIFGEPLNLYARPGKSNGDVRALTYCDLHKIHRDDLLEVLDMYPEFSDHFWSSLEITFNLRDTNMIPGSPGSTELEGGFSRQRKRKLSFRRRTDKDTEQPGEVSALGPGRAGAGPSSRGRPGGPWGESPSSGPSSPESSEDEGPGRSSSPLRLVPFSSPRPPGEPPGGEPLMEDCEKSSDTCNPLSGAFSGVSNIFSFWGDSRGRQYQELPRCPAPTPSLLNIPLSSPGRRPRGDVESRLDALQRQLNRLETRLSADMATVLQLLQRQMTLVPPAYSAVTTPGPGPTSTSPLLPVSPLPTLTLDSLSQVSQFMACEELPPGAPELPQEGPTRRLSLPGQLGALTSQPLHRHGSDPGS
row,Compound,"hERG current change (%, negative = inhibition) at 1uM [%]"
1,Cc1ccccc1Nc1nc(N)nc(COC(=O)c2ccc([N+](=O)[O-])o2)n1,8.44
2,COc1ccc(NC(=O)CSc2nnc3c4c(nc(-c5ccccc5)n23)CC(C)(C)OC4)cc1,-4.87
3,O=S(=O)(N1CCOCC1)N1CCOCC1,22.6
4,CN1CCN(C(=O)c2cc(-c3ccco3)on2)CC1,19.6
5,O=C(CSc1nc2ccccc2c(=O)n1NC(=O)Cc1ccccc1)NCc1ccccc1,16.1
6,CC1(C)Cc2cccc(OCC(=O)N3CCN(c4ccc([N+](=O)[O-])cc4)CC3)c2O1,-51.8
7,CCC(=O)Nc1nc(CC(=O)Nc2ccccc2)cs1,13.1
8,Cc1ccc(-c2nc3ncccc3o2)cc1NC(=O)c1cc2ccccc2o1,3.23
9,CCn1cc(C(=O)NCCCN2CCCC2)c(=O)c2cc(S(=O)(=O)N3CCc4ccccc4C3)ccc21,6.45
10,Cc1ccc(C(=O)OCC(=O)NCc2cccs2)c(C)c1,16.4
11,CCCCn1c(=O)n(C)c(=O)c2c3c(sc21)COC(C)(C)C3,2.92
12,O=C(N/N=C\c1cn(-c2ccccc2)nc1-c1ccccc1)c1ccc(Br)o1,7.05
13,Cc1ccc(S(=O)(=O)CCC(=O)N(Cc2nnc(-c3ccc(Cl)cc3)o2)C2CC2)cc1,4.52
14,COc1ccc(NC(=O)C(NC(=O)c2ccc(=O)[nH]c2)c2ccc(OC)cc2)cc1 (centres unmarked),5.55
15,COc1cc(C(CC(=O)Nc2ccc(C)cn2)N2Cc3ccccc3C2=O)cc(OC)c1OC (centres unmarked),9.69
16,O=C(Nc1ccc(Cl)cc1)N1CCOC12CCCCC2,2.35
17,O=C(N/N=C\C=C\c1ccc2c(c1)OCO2)C1COc2ccccc2O1 (centres unmarked),-7.86
18,CC(=C/c1ccccc1)/C=N/Nc1nc(N2CCCCC2)nc(N2CCCCC2)n1,1.93
19,O=C(c1ccc(Cl)cc1Cl)N1CCC(C(=O)N2CCOCC2)CC1,8.73

row,Compound,"hERG current change (%, negative = inhibition) at 1uM [%]"
1,CC(C)(C)C1CCc2c(sc(NC(=O)CSc3nnc(-c4ccccc4)o3)c2C#N)C1 (centres unmarked),9.05
2,C=CCn1c(CCNC(=O)c2ccccc2F)nnc1SCC(=O)Nc1nc(C)cs1,4.14
3,COC(=O)C1CC(=O)N(CCc2c[nH]c3ccccc23)C1 (centres unmarked),2.43
4,C=CCC(=O)NC1CC(C)(C)Cc2c1cnn2-c1ccccc1C (centres unmarked),9.27
5,Cc1ccccc1SCC(=O)Nc1cccc(C#N)c1,17.9
6,Cc1ccc(S(=O)(=O)NCC(=O)NCC(=O)NC(C)c2ccccc2Br)cc1C (centres unmarked),7.99
7,CC(=O)NCCNC(=O)c1ccc(Cn2c(=O)[nH]c3ccsc3c2=O)cc1,12.1
8,O=C(CN1CCOCC1)Nc1ccc(Oc2ccc(NC(=O)CN3CCOCC3)cc2)cc1,3.34
9,O=C(O)c1ccc(C2CCCCC2)cn1,10.4
10,O=C(COc1cccc(C(F)(F)F)c1)Nc1ccc(S(=O)(=O)N2CCCC2)cc1,6.14
11,CCN(CC)c1ccc(C2C(C(=O)Nc3ccccn3)=C(C)NC3=C2C(=O)CC(C)(C)C3)cc1 (centres unmarked),1.54
12,Cn1cc(Cl)c(C(=O)Nc2nc3ccc([N+](=O)[O-])cc3s2)n1,19.6
13,CCOC(=O)c1c(NC(=O)c2cccs2)sc(C(=O)N2CCOCC2)c1C,-11.3
14,CC(=NCCCn1ccnc1)c1c(O)n(C)c(=O)n(C)c1=O,-3.3
15,COC1=CCC2([N+](=O)[O-])CN(CCO)CC1([N+](=O)[O-])C2 (centres unmarked),14.4
16,CCCn1c(=O)c2c(nc3n2CCS3)n(C)c1=O,16.7
17,CCn1c(=O)c(C(=O)Nc2ccccn2)c(O)c2ccccc21,15
18,CN(CC(=O)Nc1ccc(Cl)cc1)C(=O)CCc1nc2sc3c(c2c(=O)[nH]1)CCCC3,-11.1
19,O=C(CSC1CS(=O)(=O)c2cc([N+](=O)[O-])ccc21)NNC(=O)c1ccccc1 (centres unmarked),0.828

row,Compound,"hERG current change (%, negative = inhibition) at 1uM [%]"
1,Cc1cc(C)nc(N2CCCC(C(=O)NCc3cccc(C(F)(F)F)c3)C2)n1 (centres unmarked),15.6
2,N#Cc1cc2sc3nnc(-c4ccncc4)n3c2cc1C#N,-15.9
3,Cc1cccc(-c2nnc(SCC#N)n2Cc2ccccc2)c1,-20.4
4,COc1ccc(OCC(=O)N/N=C/c2ccncc2)cc1,13.2
5,CC1(C)c2ssc(=S)c2-c2ccccc2N1C(=O)CSC1=NCCS1,14.8
6,O=C(CN1CC(=O)Nc2ccccc21)Nc1ccc(F)c(F)c1,9.28
7,CC(C)COc1cccc(C(=O)NNC(=O)C2COc3ccccc3O2)c1 (centres unmarked),10.9
8,O=C(O)COc1ccc(/C=N/O)cc1Br,6.92
9,Cc1cccc(-n2c(Cn3nc(C)c([N+](=O)[O-])c3C)n[nH]c2=S)c1,9.63
10,Cc1ccccc1OCc1nnc(SCC(=O)O)n1-c1ccccc1,13.7
11,O=C(COc1ccccc1)Nc1nnc(-c2ccccc2Cl)o1,8.45
12,CN(C)S(=O)(=O)c1ccc(Cl)c(C(=O)Nc2ccccc2[N+](=O)[O-])c1,0.658
13,CC1CCCC(C)N1/N=C/c1ccc(C(=O)O)cc1 (centres unmarked),7.54
14,CCCn1c(SCC(=O)/C(C#N)=C(\C)N)n[nH]c1=O,13.8
15,CC(C)(C)C(=O)Nc1cc(NC(=O)C(C)(C)C)cc(C(=O)NNC(=O)c2ccncc2)c1,13.9
16,CCc1cc(=O)oc2c(C)c(OCC(=O)NCCCn3ccnc3)ccc12,5.28
17,OCC[C@@H]1C[C@H](O)[C@@H](O)[C@]2(Cc3ccccc3CCO2)O1,7.02
18,Clc1nc(Cl)nc(NCCC2=CCCCC2)n1,7.97
